Laboratory results reported in PubChem BioAssay AID686970 (National Center for Advancing Translational Sciences (NCATS), 2013).
Among all 360,000 compounds or so, about 6,000 (1.7%) were called active. Inconclusive means that the source gave no clear call. Such entries were picked first, then a sample of the others. Calls come from the whole dose curve; as a rule, active = well fitted cell-killing curve with a large enough effect; inconclusive = small, poorly fitted or top-dose-only effect, or effect the other way; inactive = flat fitted curve, though single readings scatter. Potencies of inconclusive entries are left out as doubtful fits.

Experiment: qHTS for induction of synthetic lethality in tumor cells producing 2HG: qHTS for the HT-1080-NT fibrosarcoma cell line;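 note: NT is the 2HG producing partner of a matched IDH1 knockdown line; nearly all actives have a fitted effect of over 55% in size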;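 for activity, negative = less viability: 0% = DMSO-treated cells and -100% = media-only wells without cells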
Conditions: HT-1080-NT fibrosarcoma viability, CellTiter-Glo ATP luminescence, 48 h; activity, negative = less viability: at 46.1 µM (top of the series) unless noted
Method in brief: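 Viability by CellTiter-Glo luminescence after 48 h compound exposure at 37C of HT-1080-NT cells (750/well, RPMI, 5% FBS). % activity scaled between DMSO wells and medium-only wells, then curve-fitted and categorized by curve class.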
Potency is the fitted concentration of half-maximal effect; tags give direction and shape of the fitted curve.

**Q.** For O=C(NC1CCCCC1)C(c1cccnc1)N(C(=O)CCl)c1ccccc1Cl (stereo unspecified), which Potency is on record?
**A.** active: 10.3 µM

**Q.** With Cc1ccc(Cl)cc1N1CCN(C(=O)CCCn2c(=O)c3cccn3c3cccnc32)CC1 as the compound, how does the Potency read?
**A.** inactive

**Q.** Which Potency does the source give for O=C(CCC1CCCC1)Nc1nnc(-c2ccc3c(c2)OCO3)s1 here?
**A.** inactive

**Q.** For Cc1ccccc1C(=O)NNC(=O)CSc1nnc(C)n1-c1ccccc1, which activity, negative = less viability is on record?
**A.** inconclusive: 30%

**Q.** For Cc1cccc(OCCOc2ccccc2C=C(C#N)C#N)c1, which Potency is on record?
**A.** inconclusive [cytotoxic, single point]

**Q.** With CC1(C(=O)Nc2ccc3nc[nH]c3c2)CCN1C(=O)CCc1ccccc1 (stereo unspecified) as the compound, how does the Potency read?
**A.** inconclusive [rising, single point]

**Q.** For COc1ccc(CS(=O)c2nc(C)cc(C)c2S(C)(=O)=O)cc1 (stereo unspecified), which Potency is on record?
**A.** inactive

**Q.** With COc1ccc(/C=C2/C(=O)OCc3cc(OC)c(OC)cc32)cc1 as the compound, how does the Potency read?
**A.** active: 3.26 µM

**Q.** Which Potency does the source give for CC1CN(C(=O)CCC(=O)NCCCN2CCC(Cc3ccccc3)CC2)c2cc(Cl)ccc2O1 (stereo unspecified) here?
**A.** inconclusive [cytotoxic, single point]

**Q.** Which Potency does the source give for COc1cc(C(=O)NCC(=O)N2CCN(S(=O)(=O)c3cc(C)ccc3C)CC2)cc(OC)c1OC here?
**A.** active: 7.31 µM

**Q.** Which Potency does the source give for Cn1cccc1-c1cc(C(=O)N/N=C/c2cc(Br)ccc2O)[nH]n1 here?
**A.** inconclusive [cytotoxic, full curve, poor fit]

**Q.** Which Potency does the source give for COc1ccc(CN2CCN(Cc3csc(C(C)=O)c3)CC2CCO)c(C)c1C (stereo unspecified) here?
**A.** inconclusive [cytotoxic, single point]

**Q.** For CC(=O)N1c2ccc(S(=O)(=O)NCC3CCC(C(=O)NCc4ccc(C)cc4)CC3)cc2CC1C (stereo unspecified), which Potency is on record?
**A.** inconclusive [cytotoxic, single point]

**Q.** With C[C@H]1CN([C@@H](C)CO)C(=O)c2cccc(NS(=O)(=O)c3ccc(Cl)cc3)c2O[C@@H]1CN(C)CC1CCCCC1 as the compound, how does the Potency read?
**A.** inactive

**Q.** For COc1cc(NC(=O)C/C(C)=N/NC(=O)c2cccs2)c(OC)cc1Cl, which Potency is on record?
**A.** inconclusive [cytotoxic, partial curve]

**Q.** For COc1ccc2nc(SCC(=O)NC3CCCCC3)[nH]c2c1, which Potency is on record?
**A.** inactive

**Q.** For CCN1CCc2c(sc(NC(=O)c3ccc(S(=O)(=O)N4CCCC4)cc3)c2C(=O)NC)C1, which Potency is on record?
**A.** inconclusive [cytotoxic, single point]

**Q.** With COc1ccc(N2CCN(CCNC(=O)C3CCN(S(=O)(=O)c4cccs4)CC3)CC2)cc1 as the compound, how does the Potency read?
**A.** inactive

**Q.** Which Potency does the source give for O=C(NCc1ccco1)C1Cc2c(-c3ccccc3Oc3ccccc3)ccnc2O1 (stereo unspecified) here?
**A.** inconclusive [cytotoxic, single point]

**Q.** With Cn1cccc1C(=O)NC(=O)COC(=O)CCNS(=O)(=O)c1ccc(Cl)cc1 as the compound, how does the Potency read?
**A.** inactive

**Q.** For C/C=C(\C)CN1CCC(n2nccc2NC(=O)CCOc2ccccc2)CC1, which Potency is on record?
**A.** inactive

**Q.** For Cc1ccc(F)cc1C(=O)N1CCOCC1c1cc(C(=O)Nc2ccccc2)no1 (stereo unspecified), which Potency is on record?
**A.** inactive

**Q.** With CCOC(=O)C(=Cc1ccc(N(C)C)cc1)C(=O)c1ccccc1 as the compound, how does the Potency read?
**A.** inconclusive [cytotoxic, single point]

**Q.** For O=C1/C(=C/c2ccc(Cl)cc2)SC(=S)N1CCC(=O)N1CCCCC1CCO (stereo unspecified), which Potency is on record?
**A.** inactive

**Q.** With O=C(O)c1ccc(Cl)c(S(=O)(=O)N(Cc2ccccc2)c2ccccc2Cl)c1 as the compound, how does the Potency read?
**A.** inconclusive [cytotoxic, single point]

**Q.** For COc1ccccc1Nc1nc(N)nc(CN2CCN(c3ccccc3F)CC2)n1, which Potency is on record?
**A.** inactive

**Q.** Which Potency does the source give for CC(C)(C)S(=O)N1Cc2cc(C(=O)NCc3ccc(Oc4ccccc4)cc3)nc(-c3cccc(-c4cc5ccccc5o4)c3)c2[C@H]1CCO (stereo partly specified) here?
**A.** active: 18.4 µM

**Q.** With Cc1nnn(-c2nonc2N)c1C(=O)N/N=C/c1ccccc1O as the compound, how does the Potency read?
**A.** active: 6.51 µM

**Q.** Which Potency does the source give for CCC[n+]1c(C)sc2c3c(ccc21)CCCC3 here?
**A.** inconclusive [cytotoxic, single point]

**Q.** With COC(=O)c1cnc(Nc2nc(C(N)c3ccccc3Cl)cs2)nc1C(F)(F)F (stereo unspecified) as the compound, how does the Potency read?
**A.** inconclusive [cytotoxic, partial curve]

**Q.** With COc1c(OC(C)=O)ccc(/C=C/c2ccc3cccc(OC)c3n2)c1[N+](=O)[O-] as the compound, how does the Potency read?
**A.** inconclusive [cytotoxic, single point]

**Q.** Which Potency does the source give for CCCN(CC(=O)Nc1ccc(Cl)cc1Cl)C(=O)CC(NC(C)=O)c1ccccc1 (stereo unspecified) here?
**A.** inconclusive [cytotoxic, single point]

**Q.** For Cc1cccc(NC(=S)N/N=C/c2ccc([N+](=O)[O-])s2)c1, which Potency is on record?
**A.** active: 17.8 µM

**Q.** With CC1(C(=O)Nc2cccc3ncccc23)CCN1C(=O)CCc1ccccc1 (stereo unspecified) as the compound, how does the Potency read?
**A.** inactive

**Q.** For COC(=O)c1ccc2nc(-c3ccco3)c(Cc3cccc(F)c3)n2c1, which Potency is on record?
**A.** inconclusive [cytotoxic, single point]

**Q.** For CCC(C)C(CO)NC(=O)/C=C/[C@H]1O[C@@H](n2cnc3c(NC(=O)c4ccccc4)ncnc32)[C@H](O)[C@@H]1O (stereo partly specified), which Potency is on record?
**A.** inactive

**Q.** Which Potency does the source give for CCNc1nc(SC(C)C(=O)Nc2ccccc2)nc(N2CCOCC2)n1 (stereo unspecified) here?
**A.** inactive

**Q.** Which Potency does the source give for NC(COCc1ccccc1)c1csc(Nc2ccc(C(=O)c3ccccc3)cc2)n1 (stereo unspecified) here?
**A.** active: 18.4 µM

**Q.** For COc1cccc(-c2nc(NC(C)(C)C)c3ccccc3n2)c1O, which Potency is on record?
**A.** inconclusive [cytotoxic, partial curve]

**Q.** With COc1ccccc1NS(=O)(=O)c1cccc(C(=O)NC2CCN(Cc3ccccc3)CC2)c1 as the compound, how does the activity, negative = less viability read?
**A.** inconclusive: -33.8% [cytotoxic]

**Q.** With O=C(CN1CCN(S(=O)(=O)c2ccc(Cl)cc2)CC1)NCC1(N2CCOCC2)CCCCC1 as the compound, how does the Potency read?
**A.** inactive

**Q.** With CSc1nc2ccc(Nc3nc(N4CCOCC4)nc(N4CCOCC4)n3)cc2s1 as the compound, how does the Potency read?
**A.** inconclusive [cytotoxic, single point]

**Q.** Which Potency does the source give for Cc1ccc(NC(=S)N/N=C2\CC(C)(C)Oc3ccc(O)cc32)cc1 here?
**A.** inactive

**Q.** For Cc1ccc2[nH]c(C(=O)NN=C3CCCCC3)c(-c3ccccc3)c2c1, which Potency is on record?
**A.** inconclusive [cytotoxic, single point]

**Q.** For CCCCOc1ccc(-c2n[nH]c(=S)n2Cc2ccccc2)cc1, which Potency is on record?
**A.** inconclusive [cytotoxic, single point]

**Q.** For C[C@H](O)[C@@H]1CN2CCc3c([nH]c4ccc(-c5ccc6c(c5)OCO6)cc34)[C@@H]2C[C@@H]1N(C)C(=O)Nc1cc(Cl)cc(Cl)c1, which Potency is on record?
**A.** active: 9.2 µM
